Assay results taken from paper PMC4336329 (PLoS ONE, 2015).
The campaign covered roughly 310,000 compounds. About 14,000 (4.5%) showed an effect of 50% or more. Effects have a minus sign here. This is one part of the list.

Target: human ether-à-go-go-related gene (hERG) potassium channel (human, UniProt Q12809)
Test: primary screen, population patch clamp on CHO cells stably expressing hERG
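Note: peak tail current of the secondary pulse compared with the same well before compound.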

Sequence of human ether-à-go-go-related gene (hERG) potassium channel (Q12809 whole entry, looked up): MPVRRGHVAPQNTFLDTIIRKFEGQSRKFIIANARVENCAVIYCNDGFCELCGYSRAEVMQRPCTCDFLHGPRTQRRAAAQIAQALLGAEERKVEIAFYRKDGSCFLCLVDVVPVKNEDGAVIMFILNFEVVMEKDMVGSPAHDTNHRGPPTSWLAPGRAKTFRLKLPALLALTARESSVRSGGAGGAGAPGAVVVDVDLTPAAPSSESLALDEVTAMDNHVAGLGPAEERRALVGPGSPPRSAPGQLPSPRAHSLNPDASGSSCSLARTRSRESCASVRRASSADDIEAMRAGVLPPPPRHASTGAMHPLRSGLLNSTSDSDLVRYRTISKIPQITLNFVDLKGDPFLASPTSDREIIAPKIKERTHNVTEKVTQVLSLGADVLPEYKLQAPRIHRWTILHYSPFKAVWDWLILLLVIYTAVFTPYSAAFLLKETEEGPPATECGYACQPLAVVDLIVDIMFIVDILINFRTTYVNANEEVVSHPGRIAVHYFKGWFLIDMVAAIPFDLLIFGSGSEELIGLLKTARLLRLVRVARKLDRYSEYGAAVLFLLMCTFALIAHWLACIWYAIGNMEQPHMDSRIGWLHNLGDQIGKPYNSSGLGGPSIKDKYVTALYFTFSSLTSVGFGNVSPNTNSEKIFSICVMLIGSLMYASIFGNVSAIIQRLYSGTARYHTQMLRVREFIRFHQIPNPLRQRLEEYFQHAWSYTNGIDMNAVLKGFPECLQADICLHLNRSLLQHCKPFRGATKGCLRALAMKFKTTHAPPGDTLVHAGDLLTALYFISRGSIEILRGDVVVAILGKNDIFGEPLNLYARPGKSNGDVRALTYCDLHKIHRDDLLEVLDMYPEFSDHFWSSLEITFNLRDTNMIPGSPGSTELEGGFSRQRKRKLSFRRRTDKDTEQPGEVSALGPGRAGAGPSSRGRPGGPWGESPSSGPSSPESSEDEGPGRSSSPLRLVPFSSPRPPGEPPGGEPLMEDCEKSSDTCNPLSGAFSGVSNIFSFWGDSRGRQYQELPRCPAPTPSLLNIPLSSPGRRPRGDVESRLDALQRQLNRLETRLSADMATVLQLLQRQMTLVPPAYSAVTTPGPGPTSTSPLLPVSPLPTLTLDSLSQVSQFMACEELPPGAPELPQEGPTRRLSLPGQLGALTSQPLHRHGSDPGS

Row | Structure (SMILES) | hERG current change (%, negative = inhibition) at 10uM [%]
1 | CCOc1ccc(NC(=O)CN(C)C(=O)CN2C(=O)C3CCCCC3C2=O)cc1OCC (centres unmarked) | 19.6
2 | COc1ccc(-n2nc(C(=O)NCC(=O)N(C)Cc3ccccc3)c3ccccc3c2=O)cc1OC | -9.49
3 | N=c1oc2ccccc2cc1C(=O)NC1CCCCCC1 | -23.7
4 | O=C(CN(C(=O)c1ccccc1Cl)N1C(=O)CCCC1=O)c1ccc(Cl)cc1 | 7.29
5 | CN1C(=O)c2cccc3c(S(=O)(=O)Nc4ccccn4)ccc1c23 | 9.38
6 | O=C(CCSc1nc2ccccc2o1)Nc1ccccc1 | 10.1
7 | Cc1ccccc1N(C(=O)c1ccccn1)C(C(=O)NCc1ccccc1)c1cccnc1 (centres unmarked) | -4.96
8 | CN(C)CCCCCN(C)Cc1cc2ccccc2o1.Cl | 27.8
9 | Cc1ccc(/C=C/c2nc3ccccc3s2)s1 | 3.83
10 | CCC(C)(NC(=O)c1ccccn1)C(=O)NC1CCCCC1 (centres unmarked) | 5.98
11 | Cc1ccc(S(=O)(=O)N/N=C/c2cc([N+](=O)[O-])ccc2O)cc1[N+](=O)[O-] | 11.9
12 | COc1ccc(S(=O)(=O)N2CCCCCC2)cc1C(=O)Nc1ccccn1 | 17.8
13 | COC(=O)c1ccc(NS(=O)(=O)c2ccc3c(c2)oc(=O)n3C)cc1 | 1.11
14 | CC(C)C[C@@H](C(=O)O)N(Cc1cccc(CN([C@@H](CC(C)C)C(=O)O)S(C)(=O)=O)c1)S(C)(=O)=O | 4.08
15 | CCNC(=O)COC(=O)c1csc2c1CCCC2 | -1.35
16 | COc1ccc(CCNC(=O)CSc2nc3c(c(=O)n(C)c(=O)n3C)n2C(C)C)cc1OC | -25.1
17 | O=C(NC1CCCC1)C(c1cccnc1)N(C(=O)c1ccco1)c1cccc(F)c1 (centres unmarked) | 8.97
18 | O=C(Cn1cnc2c(nnn2Cc2ccc(Cl)cc2)c1=O)c1ccccc1 | 6.26
19 | N#Cc1c(NC(=O)C2C3C=CC(C3)C2C(=O)O)sc2c1CCCCC2 (centres unmarked) | 14.4
20 | COc1cc2c(cc1OC)CN(C(=O)CCCN1C(=O)c3ccccc3C1=O)CC2 | -8.82
21 | COc1ccccc1NC(=O)N1CCC(C(=O)c2ccc(F)cc2)CC1 | 0.487
22 | O=C1c2ccccc2C(=O)c2c1cccc2N1CCCC1 | -14.3
23 | C=CC[n+]1c(-c2ccc(Cl)cc2Cl)csc1Nc1c(C)n(C)n(-c2ccccc2)c1=O.[Cl-] | -36.9
